Some of the results follow.

These results are taken from publication PMC12136788.

The labels stand for the following.
T1: UNK ZnF1-3 (human, UniProt Q9C0B0 31-174)
T1 sequence: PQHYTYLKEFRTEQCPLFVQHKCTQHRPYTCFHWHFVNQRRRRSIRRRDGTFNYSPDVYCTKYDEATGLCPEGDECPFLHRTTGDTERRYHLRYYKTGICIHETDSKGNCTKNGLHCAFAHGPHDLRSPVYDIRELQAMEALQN

B1: chr6:41067180:41067181:+_ENSG00000001167_ENST00000341376|hu_hu|motif|central (ssRNA)
RNA: GGGAGUUCUACAGUCCGACGAUCACAAAAUUCAAAGUCAUCUCCCCCCAAAUAAAAAAUUCAGCAACAAGGCUGGCAUUACGGUGUACAAACUUACAGACACAAAUAAAUAGCAUCUUCUAACUGUUGGCAGCUUAAGCACUCCAACAGAGGAUUGAGCAUCA
B2: chr13:85359083:85359084:-_ENSMUSG00000021549_ENSMUST00000109552|mus_hu|FALSE|FALSE (ssRNA)
RNA: GGGAGUUCUACAGUCCGACGAUCGGGCUCCUUAGCUCCAAAUUCCACAAGAUUUGCUAAGUUCUGCACAGAUUUAGCCACUAAUAUCAGUGUUCUUGCAGCAAUAGGAGAUGGAGAAUCUGAGAUGAUAUUGAACAUCCGUGGCAACAGAGGAUUGAGCAUCA
B3: chr17:6138058:6138059:+_ENSMUSG00000034377_ENSMUST00000152672|mus_hu|FALSE|FALSE (ssRNA)
RNA: GGGAGUUCUACAGUCCGACGAUCAGUGCCAUAGAGGCUAGAAAGAAGGCCCCUUCACUCAAGAGGCAGAAUGUUCCAGCGCUCUUACAGUGGUCCCAGUGUUUGCCCUGGGUGAGUCUUAAAUCCUCUUGCUGACAAAACAGACAACAGAGGAUUGAGCAUCA
B4: chr2:181286759:181286760:+_ENSMUSG00000000826_ENSMUST00000072334|mus_hu|FALSE|FALSE (ssRNA)
RNA: GGGAGUUCUACAGUCCGACGAUCGCUGCACUAACAACAUAGAGAACUAGGAAAGUUCACAAACACUGAGCAGUAAUAUCUAAAGCAGUUUAAAAAUAAAGCCAAAAGGAAGACAAAAAAAUCCCACGUCACUGAGUGGAGACACAACAGAGGAUUGAGCAUCA
B5: chrX:69798090:69798091:-_ENSMUSG00000031343_ENSMUST00000055966|mus_mus|mus_mus_mus_hu_False|58_58 (ssRNA)
RNA: GGGAGUUCUACAGUCCGACGAUCAAGUCCCCGGGUUCUUGUCGUCUUGAUUCCCCUUGACCAGUGGUUCCAGGGAGAAUACUAAUCAGGAAAAGAAUCCCAAGGCUGGUCAUGUAACAGUGACUUGUUUGUGUGAUUAUCAUCCAACAGAGGAUUGAGCAUCA
B6: 3559265_3561159_1031_CDS_ENSMUSG00000021218_ENSMUST00000059515|mouse|control|control (ssRNA)
RNA: GGGAGUUCUACAGUCCGACGAUCAUCUUUUACAUAGCUGGGAUCACAGAUGAGCUGUUUACAGCGAGCAAUCUCUCCUUCGGAUUUUACACCAACCACUUUUCCAUUUUGCACAAUGAUUUCUUCAAUUGGUUUAUUCAACAUCAACAGAGGAUUGAGCAUCA
B7: chrX:20248820:20248821:+_ENSMUSG00000001924_ENSMUST00000001989|mus_mus|FALSE|FALSE (ssRNA)
RNA: GGGAGUUCUACAGUCCGACGAUCGGCAAAGUCAGUCAUCACAAAGUCAGGCUCUACCAGUGAUGCUGGCAAGGAUUUAAAACUAAUCUUUUUCGGUACUUUGACCUGACUGACGAUGCCUCCACGGAUGUAGUCAGAGAAGUUCAACAGAGGAUUGAGCAUCA
B8: chrX:71549400:71549401:+_ENSMUSG00000019087_ENSMUST00000019231|mus_hu|mus_mus_mus_hu_False|1_48 (ssRNA)
RNA: GGGAGUUCUACAGUCCGACGAUCGCAGUAGGAAGAGGGAAGCUCUUCAGUCCAGUGCGCUGCAGGGUGGGAAAGCAACAACACGGAACCAAUACUCCCCUCAACCCCCCCACUGGCACAGGGUCACACAAUCUGGGAAGUGAUCAACAGAGGAUUGAGCAUCA
B9: 98286892_98287012_1828_CDS_ENSMUSG00000036550_ENSMUST00000098473|mouse|control|control (ssRNA)
RNA: GGGAGUUCUACAGUCCGACGAUCCCCAUGCCAUGCAUAGUGCAAAAUAAUGGCAGAGUUAGGAUGGUUUCCAAGGAAAAUUGGCAUCAAAGUAGAGAUGAGUUCAUGGCGUAGGGUGUGCCAGGAAGUGUUGAUUUGAAGUAACAACAGAGGAUUGAGCAUCA
B10: chr1:39494447:39494448:+_ENSG00000168653_ENST00000372967|hu_mus|hu_hu_hu_mus_False|38_48 (ssRNA)
RNA: GGGAGUUCUACAGUCCGACGAUCGCACCGAGCGGCGUUCUUAUAGGGCUGUUCUGCGCUUAGGAACAUAAAGUGCCGGUCCAGGCUAAGGCCGAACCUUUUCUGGAUGUCAAGGAAAGGCAUGGCUCUGCAGUGCCCUUGUCACAACAGAGGAUUGAGCAUCA
B11: chr5:31258465:31258466:-_ENSMUSG00000045302_ENSMUST00000155946|mus_mus|motif|central (ssRNA)
RNA: GGGAGUUCUACAGUCCGACGAUCCCAUGGGCCUCCUUCACAUAAUACAGGCGCUGGGGGAGAAAGCAGUGAGGAAAGCCGGGUUGGAAGCUACCUUCGGGGAAACACGCUCCACAGUCCUAACAGGCUUCCCCUGUGGACUGGCAACAGAGGAUUGAGCAUCA
B12: chr10:33190432:33190433:-_ENSG00000150093_ENST00000302278|hu_mus|hu_hu_hu_mus_True|38_108 (ssRNA)
RNA: GGGAGUUCUACAGUCCGACGAUCUACAUUUUCAAAACCUGCAUGUGAAUAAAACCCUGGCCACAGAGCCCCAAAACUACCCUACUGUGACUAAGAUAAUUGCUACUUGAGCUUGGUGUUGCAAAAUCCGCCUGAGUAGGAUUCCAACAGAGGAUUGAGCAUCA
B13: 32074226_32074800_3202_3pUTR_ENSMUSG00000039262_ENSMUST00000036691|mouse|control|control (ssRNA)
RNA: GGGAGUUCUACAGUCCGACGAUCCAGACGACUCCCGAGACUCAGCACUCAAGUCAACGCCACUAUCUCCCUGGCUGCUCUUAAACCCCUGCUCUGAGGUGCCAGGCUCAGUACUGCUGAAGGCAGUGACAGCUGUCCUCCAUGCAACAGAGGAUUGAGCAUCA
B14: chr2:157385914:157385915:+_ENSMUSG00000067786_ENSMUST00000109526|mus_mus|FALSE|FALSE (ssRNA)
RNA: GGGAGUUCUACAGUCCGACGAUCCAGCCGAUGAUGAGCAGUUCUGCCGAGGCUGCUGCCACUGCGGCCAUGGUUCCGAAAGUGGGUGGGUGGUCGAGAGCAAGGGUUCGCCGAGGUCUACUGGUCUCGGAGUCCGCUGCUGGGCAACAGAGGAUUGAGCAUCA

The target in the assay is T1, UNK ZnF1-3. The experiment in a line: nsRBNS (natural sequence RNA bind-n-seq); RBNS binding buffer (assumed for nsRBNS): 25 mM Tris pH 7.5, 150 mM KCl, 3 mM MgCl2, 0.01% Triton X-100, 500 ug/ml BSA, 20 U/ml SUPERase-In, 4 C; UNK is unkempt and MSI1 is Musashi-1; names of the RNAs are library labels; protein concentration not given here; high values mean tight binding.
In turn, B1 came in with a binding signal of 2.3 enrichment R. As for B2, the figure is 1.63 enrichment R.

B3 yielded a binding signal of 0.787 enrichment R. Molecule B4 showed a binding signal of 2.6 enrichment R. As for B5, the figure is 0.583 enrichment R.

For B6, the binding signal turned out to be 1.1 enrichment R. Take B7: the binding signal worked out at 0.66 enrichment R. The molecule B8 showed a binding signal of 1.41 enrichment R. As for B9, the binding signal amounted to 2.83 enrichment R.

For the molecule B10, the binding signal was found to be 0.763 enrichment R. On to B11, for which the binding signal worked out at 1.33 enrichment R. Molecule B12 returned a binding signal of 0.923 enrichment R. On to B13, for which the binding signal came out at 1.01 enrichment R.

B14: the binding signal was 0.894 enrichment R.
